Laboratory results from publication PMC4336329 (PLoS ONE, 2015).
Screen size: about 310,000 compounds; about 2,200 (0.71%) showed an effect of 50% or more. The effect is printed as a negative number. The list shows a part of the results.

Target: human ether-à-go-go-related gene (hERG) potassium channel (human, UniProt Q12809)
Experiment: primary screen, population patch clamp on CHO cells stably expressing hERG

Sequence of human ether-à-go-go-related gene (hERG) potassium channel (Q12809 whole entry, looked up): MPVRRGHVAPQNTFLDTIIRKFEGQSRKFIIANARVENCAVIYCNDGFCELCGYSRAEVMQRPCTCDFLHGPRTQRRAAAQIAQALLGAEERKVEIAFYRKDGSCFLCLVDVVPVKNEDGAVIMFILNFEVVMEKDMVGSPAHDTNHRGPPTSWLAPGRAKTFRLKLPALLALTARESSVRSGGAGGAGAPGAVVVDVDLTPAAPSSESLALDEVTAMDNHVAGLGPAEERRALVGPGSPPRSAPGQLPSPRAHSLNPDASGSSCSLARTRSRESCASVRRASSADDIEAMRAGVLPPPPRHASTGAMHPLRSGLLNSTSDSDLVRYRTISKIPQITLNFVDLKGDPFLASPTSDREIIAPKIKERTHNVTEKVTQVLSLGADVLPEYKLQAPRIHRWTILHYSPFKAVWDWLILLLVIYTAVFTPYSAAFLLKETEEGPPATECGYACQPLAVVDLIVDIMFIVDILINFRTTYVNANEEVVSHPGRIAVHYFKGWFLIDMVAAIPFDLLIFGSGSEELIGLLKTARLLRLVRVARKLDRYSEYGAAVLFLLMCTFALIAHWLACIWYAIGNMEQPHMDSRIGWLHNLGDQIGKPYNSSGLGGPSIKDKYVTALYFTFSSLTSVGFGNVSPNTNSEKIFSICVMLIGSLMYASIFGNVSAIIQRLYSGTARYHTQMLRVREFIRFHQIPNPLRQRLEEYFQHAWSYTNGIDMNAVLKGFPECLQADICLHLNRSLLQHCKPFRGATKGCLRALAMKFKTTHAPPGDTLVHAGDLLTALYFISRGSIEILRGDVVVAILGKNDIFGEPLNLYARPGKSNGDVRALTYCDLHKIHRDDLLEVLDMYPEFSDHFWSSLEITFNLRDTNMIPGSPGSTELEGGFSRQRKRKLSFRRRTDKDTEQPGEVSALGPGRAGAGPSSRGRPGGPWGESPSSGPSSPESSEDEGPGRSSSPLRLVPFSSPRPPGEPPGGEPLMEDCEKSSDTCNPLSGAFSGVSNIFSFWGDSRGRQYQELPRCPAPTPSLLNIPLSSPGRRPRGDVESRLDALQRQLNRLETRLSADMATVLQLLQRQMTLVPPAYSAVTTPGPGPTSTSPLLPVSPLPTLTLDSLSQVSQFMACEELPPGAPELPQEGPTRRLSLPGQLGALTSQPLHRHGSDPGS

Structure (SMILES)	hERG current change (%, negative = inhibition) at 1uM [%]
O=C(Nc1ccc(N2CCN(C(=O)c3cccs3)CC2)cc1)c1cccnc1Cl	3.47
COc1ccc2c(/C=N/Nc3ccc(C(=O)O)cc3)c[nH]c2c1	12.7
CC(NC(=O)COc1ccccc1Cl)c1ccccc1 (stereo not drawn)	12.4
COC(=O)CC1C(=O)NCCN1C(=O)c1ccc2oc(C(C)C)nc2c1 (stereo not drawn)	14.8
Cc1ccc(CCNC(=O)c2ccc3nc4ccccc4c(=O)n3c2)cc1	14.3
COc1ccc(CC(=O)Nc2cccc(-c3nnc(-c4ccc(C)cc4)o3)c2)cc1OC	7.69
Cc1ccc(S(=O)(=O)Nc2ccc(O)c3ncccc23)cc1.Cl	-0.0457
CC(NCCCOc1cccc2ccccc12)c1ccccc1.O=C(O)C(=O)O (stereo not drawn)	9.88
O=c1/c(=C/c2ccccn2)sc2nc3ccccc3n12	9.03
S=C(NCCc1ccccc1)NCCN1CCOCC1	12.3
Cc1cccc(NC(=O)c2oc(=O)c3ccccc3c2-c2ccccc2)c1C	-0.162
Cc1nc(-c2ccccc2)[nH]c(=O)c1Oc1ccc(Cl)cc1Cl	-1.5
O=C(CSc1nnc(CNC(=O)c2ccccc2)o1)NCc1ccco1	3.7
COc1cccc(OC)c1C(=O)N1CCN(Cc2ccccc2C)CC1	0.875
Cc1ccc(-c2ocnc2C(=O)N2CCOCC2)cc1	18.5
COc1ccccc1C(=O)OCC(=O)Nc1ccc(Cl)cn1	11.9
COc1ccc(-c2cn3c(C)c(C(=O)N4CCN(c5ccccc5F)CC4)sc3n2)cc1	-7.07
COC(CNC(=O)c1ccc2c(c1)ncn2-c1cccc(F)c1)OC	10.9
CCN(CC)c1ccc(C(=O)OCC(=O)Nc2ccc3[nH]c(=O)[nH]c3c2)cc1	8.56
Cc1cccc(CCNC(=O)CC2C(=O)NCCN2Cc2ccc(F)c(F)c2)n1 (stereo not drawn)	11.6
COC(C(=O)NCc1ccc(C)cc1)c1ccccc1 (stereo not drawn)	14.4
Cc1cc(-c2nc3ncccc3o2)ccc1NC(=S)NC(=O)c1ccco1	11
CCN(CC)C(=O)c1ccc(COc2ccccc2Cl)cc1	-5.76

Structure (SMILES)	hERG current change (%, negative = inhibition) at 1uM [%]
O=C(Cn1cnc2c(cnn2-c2ccccc2)c1=O)NCc1ccccc1	0.424
Cc1nn(CC(=O)Nc2ccc3nc4n(c(=O)c3c2)CCCC4)c(C)c1[N+](=O)[O-]	8.04
COc1cc(NC(=O)COC(C)=O)cc(OC)c1OC	15.2
Cc1cccc(NC(=O)c2cccnc2Oc2ccccc2)c1C(=O)O	20.9
C[C@@H]1O[C@@H](O[C@H]2C[C@@H](O)[C@]3(CO)[C@@H]4C(CC[C@]3(O)C2)[C@@]2(O)CC[C@H](C3COC(=O)C3)[C@@]2(C)C[C@H]4O)[C@H](O)[C@H](O)[C@H]1O (stereo partly drawn)	18.2
CCOP(=O)(OCC)C(NC(=O)NC)C(N)=O (stereo not drawn)	14.6
O=S1(=O)Nc2c(ccc3cccnc23)-c2ccccc21	3.29
O=C(COc1cccc(-n2cnnn2)c1)Nc1ccccc1	8.81
O=C(CCn1nc(-c2ccc(Cl)cc2)ccc1=O)N1CCC2(CC1)OCCO2	-3.93
N#Cc1c(SCC(=O)Nc2ccc(Cl)cc2Cl)sc2c(O)cc(=O)[nH]c12	6.67
CCOCCCNC(=O)C(NC(=O)Cc1c[nH]c2ccccc12)c1ccccc1 (stereo not drawn)	6.91
Cc1ccc(C(c2nnnn2C2CCCCC2)N(C)C2CCCCC2)cc1 (stereo not drawn)	-6.61
Cc1ccc(S(=O)(=O)NC2CC(C)(C)NC(C)(C)C2)cc1C	5.61
CCCCCCC(=O)c1c(O)n(-c2ccccc2OC)c(=O)[nH]c1=O	3.21
CCCCn1c(N)c(N(CC(C)C)C(=O)CSc2n[nH]c(-c3ccc(C)cc3)n2)c(=O)[nH]c1=O	5.09
O=C1/C(=C\c2cc(Cl)c(O)c(Cl)c2)SC(=S)N1Cc1ccccc1	14.4
Cc1csc(NC(=O)C2CCCN2C(=O)Oc2ccccc2)n1 (stereo not drawn)	-11.7
CC(=O)Nc1nnc(-c2ccc(Cl)s2)o1	2.65
CCCCC(=O)Nc1nnnn1CCC	8.65
O=C(NC(=S)N1CCCCC1)c1csc([N+](=O)[O-])c1	12.8
O=C(COc1ccc([N+](=O)[O-])cc1)NNC(=O)Nc1ccc([N+](=O)[O-])cc1	9.68
Cc1c(Br)cc(C(=O)NC2CCCCC2)c(C)c1C	19.7
Cn1c(CSCc2ccccc2Cl)n[nH]c1=S	8.46

Structure (SMILES)	hERG current change (%, negative = inhibition) at 1uM [%]
CCCCCCCC/C=C\CCCCCCCC(=O)O	11.4
Nc1sc2c(c1C(=O)NCCc1ccccc1)CCC2	6.47
Cc1nnc(N=c2ssnc2Cl)o1	17.9
Cc1nn(Cc2ccc(F)cc2)c2sc(C(=O)Nc3ccc(N4CCOCC4)cc3N3CCOCC3)cc12	8.87
O=C(CSc1nnc(-c2cccs2)n1-c1ccccc1)Nc1ccccc1	-15.8
CCc1ccc(N2CC(C(=O)Nc3nnc(CC)s3)CC2=O)cc1 (stereo not drawn)	13
CCOCCCNC(=O)C(c1ccc(C)cc1)N(Cc1ccc2c(c1)OCO2)C(=O)CNC(C)=O (stereo not drawn)	8.95
CN(CCc1ccccc1)C1CCCN(S(=O)(=O)CC(F)(F)F)C1 (stereo not drawn)	7.27
CN(C)CP(=O)(O)CN(C)C=O	13.5
CCCCN(CC)Cc1ccc(CNC(=O)Nc2ccc(OC)cc2OC)o1	4.06
S=C(Nc1ccc(Br)cc1)N1CCN(C2CCCCC2)CC1	-11.3
Cc1nc(N/C(N)=N/S(=O)(=O)c2ccc([N+](=O)[O-])cc2)nc2ccccc12	-23.9
CNC(=O)c1nc(C)c(C2(C)CC(c3cccc([N+](=O)[O-])c3)=NO2)s1 (stereo not drawn)	3.24
COc1ccc(C(=O)NNC(=O)c2cc3cc([N+](=O)[O-])ccc3oc2=O)cc1OC	11.1
Cc1cccc(N2CCN(C(=O)COc3cccc4c3OC(C)(C)C4)CC2)c1C	-5.47
COc1ccc(Cc2nnc(NC(=O)c3ccco3)s2)cc1OC	5.79
COc1ccc(Nc2nc(N3CCCC3)c3ccccc3n2)cc1.Cl	-15
CC(C)(C)c1ccc(OCCC(=O)OCC(=O)NCc2ccccc2)cc1	8.28
CCN1/C(=C\C(C)=O)Sc2ccc(OC)cc21	12.5
O=C(CCC(=O)c1ccc(Br)cc1)Nc1ccc(F)cc1	19.3
O=C(OCc1cccc([N+](=O)[O-])c1)c1ccc[nH]c1=O	17.5
Cc1cccc(-c2cc3nc4c(c(NCc5ccco5)n3n2)CCCC4)c1	-25.6
Cc1nc(SCC(=O)N2c3ccccc3Sc3ccccc32)n[nH]1	10.8

Structure (SMILES)	hERG current change (%, negative = inhibition) at 1uM [%]
O=C(C[n+]1cc(-c2ccc(Br)cc2)n2c1CCCCC2)c1ccccc1.[Br-]	9.14
O=S(=O)(NC1CCCCCCC1)OCC(Cl)(Cl)Cl	2.81
Cc1n[nH]c(C)c1S(=O)(=O)N1CCN(C(=O)c2ccco2)CC1	8
O=C(NCCc1ccccc1)C1CCC(=O)N(Cc2cccc(C(F)(F)F)c2)C1 (stereo not drawn)	-8.75
O=C(c1cc(-c2cccc(O)c2)on1)N1CCCCC1	8.83
Cc1nc(NC(=O)/C=C/c2ccco2)sc1C	3.02
Cc1ccc(NC(=O)COc2ccccc2C(=O)NCCc2ccccc2)cc1	7.45
CC1(C)CC(=O)c2sc(NS(C)(=O)=O)nc2C1	-4.76
CCOCCCNC(=O)C(c1ccc(Cl)cc1)N(Cc1cccs1)C(=O)CNC(C)=O (stereo not drawn)	17.5
CCN(C)c1ccc(/C=N\n2nnnc2N)cc1	13.2
CCC(C)NC(=O)Nc1ccccc1C (stereo not drawn)	19.7
CCOC(=O)N1CCC(NC(=O)C2CCCN(C(=O)N3CCOc4ccccc43)C2)CC1 (stereo not drawn)	11.2
CCOC(=O)c1c(NC(=O)COC(=O)Cc2c[nH]c3ccccc23)sc(C(=O)N(C)C)c1C	-6.05
Cc1ccc(NC(=O)CN2C(=O)NC(C)(C3CC3)C2=O)c([N+](=O)[O-])c1 (stereo not drawn)	-2.74
COc1ccccc1NC(=S)N1CCN(C/C=C/c2ccccc2)CC1	7.29
COCCn1c(SCC(=O)Nc2cccc(S(N)(=O)=O)c2)nc2cc(Cl)ccc2c1=O	-0.843
CCOCCCN1C(=O)CN(C2CCCCC2)C(=O)C1c1ccc(OC)c(OC)c1 (stereo not drawn)	10.8
CNc1nc(-c2ccc3c(c2)CCN3C(=O)c2cccc(F)c2)cs1	7.55
Cc1ccc(CN2C(=O)CCC2C(=O)NCCN(CC(C)C)CC(C)C)cc1 (stereo not drawn)	7.6
CC(C)CC(=O)NC(Oc1ccc(Cl)cc1)C(Cl)(Cl)Cl (stereo not drawn)	10.1
C/C(=N\NC(=O)c1c(Br)c(C)nn1C)c1cccc(NC(=O)C2CCC2)c1	-1.39
